Test results taken from the antibiotic and cytotoxicity screens of Wong et al. (2023).
This is one part of the list.

Assays:
[1] = system: HSkMC (human skeletal muscle cells); test: cytotoxicity call (relative viability < 0.9); settings: 10 µM
[2] = system: HepG2; test: cytotoxicity call (relative viability < 0.9); settings: 10 µM
[3] = system: S. aureus RN4220; test: growth inhibition call (relative growth <= 0.2); settings: 50 µM

Row | SMILES | cytotoxicity call [1] | cytotoxicity call [2] | growth inhibition call [3]
1 | CCN(CC)C(=O)C1(c2ccccc2)CC1CN.Cl (stereo not drawn) | inactive | inactive | inactive
2 | C[C@@H]1CN([C@@H](C)CO)C(=O)c2cc(NC(=O)Nc3cccc4ccccc34)ccc2O[C@@H]1CN(C)Cc1ccc(C(=O)O)cc1 | inactive | inactive | inactive
3 | Cn1nccc1NC(=O)/C=C/C(=O)O | inactive | inactive | inactive
4 | COc1ccc(S(=O)(=O)N(C)C[C@@H]2Oc3c(NC(=O)c4ccncc4)cccc3C(=O)N([C@H](C)CO)C[C@H]2C)cc1 | inactive | inactive | inactive
5 | Cc1noc(C)c1NC(=O)Nc1ccc2c(c1)C(=O)N([C@@H](C)CO)C[C@@H](C)[C@@H](CN(C)S(=O)(=O)c1cn(C)cn1)O2 | inactive | inactive | inactive
6 | C[C@@H]1CN([C@@H](C)CO)C(=O)Cc2cc(NC(=O)Nc3cccc4ccccc34)ccc2O[C@H]1CN(C)S(=O)(=O)c1cccs1 | inactive | inactive | inactive
7 | CC(=O)CC(c1ccccc1)c1c(O)c2ccccc2oc1=O (stereo not drawn) | inactive | active | inactive
8 | Cn1cnc(S(=O)(=O)N2C[C@@H](O)COC[C@@H]3O[C@@H](CC(=O)NCc4ccc(F)cc4)CC[C@H]32)c1 | inactive | inactive | inactive
9 | CS(=O)(=O)N1C[C@@H]2OCC[C@@H]2[C@H](C(=O)NCc2cccnc2)C1 | inactive | inactive | inactive
10 | C[C@@H]1CN([C@H](C)CO)C(=O)Cc2cc(NS(=O)(=O)c3cn(C)cn3)ccc2O[C@@H]1CN(C)C(=O)NC1CCCCC1 | inactive | inactive | inactive
11 | CN(C)C(=O)C[C@H]1C=C[C@@H](NC(=O)C2CC2)[C@@H](CO)O1 | inactive | inactive | inactive
